Results are given in words; binding and its absence hold for the method and conditions named. Some binding calls cover weakened binding; strength is not graded here. For some of these results: Sequences can lack the tags named with a protein.

Experiment [1] concerns the target T1, full-length Ctf19-Mcm21 (K. lactis) (Kluyveromyces lactis) (UniProt Q6CRN7+Q6CVQ9).
T1 sequence 1: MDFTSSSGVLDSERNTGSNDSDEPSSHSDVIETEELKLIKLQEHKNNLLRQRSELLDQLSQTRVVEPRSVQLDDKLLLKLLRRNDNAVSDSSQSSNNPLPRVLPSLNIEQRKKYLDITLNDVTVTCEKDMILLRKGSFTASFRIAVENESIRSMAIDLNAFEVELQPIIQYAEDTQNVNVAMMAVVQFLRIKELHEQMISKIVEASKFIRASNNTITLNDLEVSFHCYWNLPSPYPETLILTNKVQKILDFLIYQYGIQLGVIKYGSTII
T1 sequence 2: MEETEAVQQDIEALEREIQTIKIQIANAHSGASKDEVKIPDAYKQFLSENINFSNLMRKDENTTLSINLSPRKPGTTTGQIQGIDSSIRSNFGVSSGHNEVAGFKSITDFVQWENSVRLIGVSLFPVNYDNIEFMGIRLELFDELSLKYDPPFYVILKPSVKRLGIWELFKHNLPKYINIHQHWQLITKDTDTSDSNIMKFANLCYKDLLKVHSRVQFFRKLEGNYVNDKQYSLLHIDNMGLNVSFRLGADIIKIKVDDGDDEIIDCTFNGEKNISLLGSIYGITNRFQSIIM
As to the kind of experiment: AUC; sedimentation equilibrium; COMA at ~3-8 uM (for COMA monomer); monomer to dimer; both purified.

Experiment [2] has as its target T1, full-length Ctf19-Mcm21 (K. lactis) (Kluyveromyces lactis). As to the kind of experiment: MST; Ctf19-Mcm21 labelled with NT-647-NHS on lysines, ~27 nM; dilution series of peptide; 22-25°C; ITC/MST buffer; three dilution series; both purified.
The target of experiment [3] is T2, Ctf19_D-RWD-Mcm21_D-RWD-Okp1_229-336 (K. lactis) (Kluyveromyces lactis) (UniProt Q6CRN7+Q6CVQ9+Q6CJY0).
T2 sequence 1: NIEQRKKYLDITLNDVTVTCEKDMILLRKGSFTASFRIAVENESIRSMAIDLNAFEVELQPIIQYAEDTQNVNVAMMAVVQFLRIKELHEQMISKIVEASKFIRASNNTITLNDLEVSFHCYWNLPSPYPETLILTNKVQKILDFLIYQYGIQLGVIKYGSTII
T2 sequence 2: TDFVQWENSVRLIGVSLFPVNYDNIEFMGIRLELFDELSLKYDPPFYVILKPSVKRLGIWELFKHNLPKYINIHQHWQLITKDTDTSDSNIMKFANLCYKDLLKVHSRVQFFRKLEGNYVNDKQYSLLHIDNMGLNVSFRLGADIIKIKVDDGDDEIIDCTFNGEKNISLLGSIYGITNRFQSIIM
T2 sequence 3: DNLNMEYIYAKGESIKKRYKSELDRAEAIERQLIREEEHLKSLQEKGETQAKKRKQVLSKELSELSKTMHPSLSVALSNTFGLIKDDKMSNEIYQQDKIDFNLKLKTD
As to the kind of experiment: SEC; analytical SEC of purified K. lactis samples alone and combined, Superdex 200 10/300, 4°C; fractions on SDS-PAGE; both purified. In general terms: Size exclusion chromatography separates by hydrodynamic size, large species first.

Experiment [4] has as its target T1, full-length Ctf19-Mcm21 (K. lactis) (Kluyveromyces lactis). The experiment is described as above.
Experiment [5] has as its target T3, Ctf19_D-RWD-Mcm21_D-RWD (K. lactis, purified) (Kluyveromyces lactis) (UniProt Q6CRN7+Q6CVQ9).
T3 sequence 1: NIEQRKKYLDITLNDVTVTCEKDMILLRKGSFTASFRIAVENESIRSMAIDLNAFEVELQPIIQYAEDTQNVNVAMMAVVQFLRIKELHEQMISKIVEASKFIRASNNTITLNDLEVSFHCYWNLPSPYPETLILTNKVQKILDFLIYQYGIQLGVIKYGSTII
T3 sequence 2: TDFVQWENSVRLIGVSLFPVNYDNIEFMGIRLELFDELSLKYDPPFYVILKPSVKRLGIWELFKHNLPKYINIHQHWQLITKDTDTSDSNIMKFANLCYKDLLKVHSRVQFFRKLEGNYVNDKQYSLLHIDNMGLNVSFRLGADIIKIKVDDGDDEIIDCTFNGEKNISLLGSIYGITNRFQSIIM
The experiment is described as above.

The target of experiment [6] is T3, Ctf19_D-RWD-Mcm21_D-RWD (K. lactis, purified) (Kluyveromyces lactis). As to the kind of experiment: HDX-MS; purified assemblies in D2O buffer, quenched at pH ~2.5, pepsin column; exchange patterns compared between assemblies; both purified.
For experiment [7], the target named is T4, Mcm21 D-RWD domain (K. lactis Mcm21 residues 108-293) (Kluyveromyces lactis) (UniProt Q6CVQ9).
T4 sequence: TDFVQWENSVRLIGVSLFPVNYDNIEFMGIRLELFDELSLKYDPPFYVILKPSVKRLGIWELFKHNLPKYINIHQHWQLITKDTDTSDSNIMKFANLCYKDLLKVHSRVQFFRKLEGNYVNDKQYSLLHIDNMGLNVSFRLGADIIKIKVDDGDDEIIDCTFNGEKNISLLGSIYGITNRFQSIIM
Nature of the experiment: crystal structure; Ctf19_107-270-Mcm21_108-293-Okp1_295-360; 35% (v/v) glycerol ethoxylate, 200 mM Li-citrate, 20°C; space group P22(1)2(1); 2.1 Å; both purified.

In experiment [8] the target is T5, Ctf19 D-RWD domain (K. lactis Ctf19 residues 107-270) (Kluyveromyces lactis) (UniProt Q6CRN7).
T5 sequence: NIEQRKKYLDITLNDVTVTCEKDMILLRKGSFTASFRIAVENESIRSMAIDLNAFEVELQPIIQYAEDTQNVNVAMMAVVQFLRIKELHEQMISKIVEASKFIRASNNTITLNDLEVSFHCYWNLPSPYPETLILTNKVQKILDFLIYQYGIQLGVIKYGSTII
Described as above.

The target of experiment [9] is T3, Ctf19_D-RWD-Mcm21_D-RWD (K. lactis, purified) (Kluyveromyces lactis). Described as above.
The target in experiment [10] is Okp1_295-360 (K. lactis) (Kluyveromyces lactis) (UniProt Q6CJY0). The experiment is described as above.

B1: full-length Ctf19-Mcm21 (K. lactis) (complex, UniProt Q6CRN7 1-270; Q6CVQ9 1-293)
chain 1: MDFTSSSGVLDSERNTGSNDSDEPSSHSDVIETEELKLIKLQEHKNNLLRQRSELLDQLSQTRVVEPRSVQLDDKLLLKLLRRNDNAVSDSSQSSNNPLPRVLPSLNIEQRKKYLDITLNDVTVTCEKDMILLRKGSFTASFRIAVENESIRSMAIDLNAFEVELQPIIQYAEDTQNVNVAMMAVVQFLRIKELHEQMISKIVEASKFIRASNNTITLNDLEVSFHCYWNLPSPYPETLILTNKVQKILDFLIYQYGIQLGVIKYGSTII
chain 2: MEETEAVQQDIEALEREIQTIKIQIANAHSGASKDEVKIPDAYKQFLSENINFSNLMRKDENTTLSINLSPRKPGTTTGQIQGIDSSIRSNFGVSSGHNEVAGFKSITDFVQWENSVRLIGVSLFPVNYDNIEFMGIRLELFDELSLKYDPPFYVILKPSVKRLGIWELFKHNLPKYINIHQHWQLITKDTDTSDSNIMKFANLCYKDLLKVHSRVQFFRKLEGNYVNDKQYSLLHIDNMGLNVSFRLGADIIKIKVDDGDDEIIDCTFNGEKNISLLGSIYGITNRFQSIIM
Turning to B1, in [1], the binding result is “no binding”.

On to SNEIYQQDKIDFALPLKTDF (peptide, UniProt Q6CJY0 318-337) [Okp1 peptide variant N330A-K332P], for which the binding entry in [2] is reported as “no binding”.

B2: Nkp1-Nkp2 heterodimer (K. lactis) (complex, Kluyveromyces lactis)
chain 1: MDLESEIIQLVRQNIRPKFPSLNDEQQARLDNALKYDVNYDILKKELVEYIDDWKRNEYYDVLTNIGDLQRLDLGNMLNGDGVSFPKLHSDLANLPRFRLIDNENEMDQSLLHKYDSLRTRLIEKCRAIELIRSATNTDVNYQDINSMLSVVELRQWRDEIQMEWKELAQNLELILKTWPDLTEEKRSKLLQLIDSSSLKSILHIKDNIE
chain 2: MLHEVLYKHLDGILVSRLYTEDQFVDLFSRTIPESNTVIASQLYKSYEENDQRIIEKIDKLIDNKLSLIRVELEREQIEDSISLEEVNKLLHSIDDMLQQHLNQLNIELDNKNTKLLKYAMELSDIEAIDTSMYDNVAKLITDMETNQPSS
notes: Nkp1 of Kluyveromyces lactis; Nkp2 of Kluyveromyces lactis; also called NN; source: E. coli BL21 Rosetta 2(DE3)pLysS, purified
Consider B2, for which the binding entry in experiment [3] and in experiment [4] was “no binding” each time.

B3: Okp1_229-336 (K. lactis) (domain or fragment, UniProt Q6CJY0 229-336)
chain: DNLNMEYIYAKGESIKKRYKSELDRAEAIERQLIREEEHLKSLQEKGETQAKKRKQVLSKELSELSKTMHPSLSVALSNTFGLIKDDKMSNEIYQQDKIDFNLKLKTD
Turning to B3, the binding entry in experiment [5] and in experiment [6] was “binds” each time.

B4: Okp1_295-360 (K. lactis) (domain or fragment, UniProt Q6CJY0 295-360)
chain: KTMHPSLSVALSNTFGLIKDDKMSNEIYQQDKIDFNLKLKTDFSKPLISEKEENSLNGLTNAMDNN
Turning to B4, the binding result was “binds” in experiment [7], “binds” in [8], “binds” in [9] and “no binding” in experiment [10].
